Results taken from PubChem BioAssay AID1240 (Sanford-Burnham Center for Chemical Genomics, 2008).
Screen size: about 50,000 compounds; about 800 (1.6%) showed an effect of 50% or more. Some of the results follow.

target: Bcl-2-like protein 10 (Homo sapiens) (UniProt Q9HD36); assay: TR3 peptide-Bcl-B binding displacers, biochemical primary FP assay, phenotype converters (AID 1240); settings: GST-Bcl-B / FITC-TR3 peptide fluorescence polarization; stronger effect = higher value; compound at 3.75 mg/L;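 also: 0% = Bcl-B with tracer peptide and DMSO and 100% = tracer peptide lacking Bcl-B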
Sequence of UniProt Q9HD36 (Q9HD36 whole entry, looked up): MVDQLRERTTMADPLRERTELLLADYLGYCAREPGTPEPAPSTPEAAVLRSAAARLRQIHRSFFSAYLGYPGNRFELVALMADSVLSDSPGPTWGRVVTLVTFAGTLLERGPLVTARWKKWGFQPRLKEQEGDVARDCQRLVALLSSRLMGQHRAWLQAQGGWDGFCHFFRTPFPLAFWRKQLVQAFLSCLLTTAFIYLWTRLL

Structure (SMILES) | displacement [%]
NS(=O)(=O)c1cccc(NC(=O)c2cc(I)ccc2Cl)c1 | -1.9
CC(=O)CC1(O)C(=O)N(Cc2ccccc2)c2ccccc21 (configuration not stated) | 13.2
CN(C)c1ccc(C2CC(c3ccc(Br)cc3)=NN2C(=O)CCC(=O)O)cc1 (configuration not stated) | 10.5
Cc1cc(OCCCN2CCOCC2)ccc1Cl | -3.1
CC1=C(C(=O)Nc2ccc(C)cc2)C(c2ccc3c4c(cccc24)CC3)NC(=S)N1 (configuration not stated) | 7.2
COc1ccc(/C=C/C(=O)NCCN2CCOCC2)cc1OC | -4.5
Cc1ccccc1OCC(=O)N1CCN(c2ccccn2)CC1 | 4.6
CCN(C(C)=O)C1=C(N2CCOCC2)C(=O)c2ccccc2C1=O | 3.2
COc1ccc(C2CC(=O)C3=C(C2)Nc2ccccc2NC3c2ccc(SC)cc2)cc1 (configuration not stated) | 3.5
CCOc1ccc(CNc2cccc(C)c2)cc1 | 11
Cc1n[nH]c(C)c1CCCCCOc1ccc(F)cc1 | 11.1
COc1ccc(N(CC(=O)Nc2ccc(Oc3ccccc3)cc2)S(C)(=O)=O)cc1Cl | 6.2
Cc1ccccc1-n1c(C)cc(C=O)c1C | 14.7
CN1C(=O)/C(=C\c2cc(Cl)ccc2OCc2ccc(F)cc2)SC1=S | 3.5
COc1cccc(OCCCn2ccnc2)c1 | -14.2
O=C1/C(=C/c2ccc3c(c2)OCO3)SC(=S)N1c1ccc(F)cc1 | 11.8
Cc1ccsc1/C=C1\SC(=N)N(c2ccc3c(c2)OCO3)C1=O | 27.3
O=C(c1ccc(F)cc1)N1CCN(Cc2ccc(Cl)cc2)CC1 | 7.7
COc1cc2ccccc2cc1C(=O)Nc1ccc(Cl)c(NC(=O)c2ccccc2)c1 | 8.3
Cc1ccc(S(=O)(=O)/N=C2/C=C(N3CCOCC3)C(=O)c3ccccc32)cc1 | 5.8
O=C1CSC2(C(=O)Nc3ccccc32)N1c1cccc(Br)c1 (configuration not stated) | -2.3
O=C(COc1ccc(/C=N/NS(=O)(=O)c2ccccc2)cc1)Nc1ccc(F)cc1 | 4.5

Structure (SMILES) | displacement [%]
O=C1NC(=Nc2cccnc2)S/C1=C\c1ccc(Br)cc1 | 12.1
c1cc2c(cc1-c1nnc(-c3ccc4c(c3)OCO4)o1)OCO2 | 6.4
Cc1ccc(-c2nc3cc(Cl)cc(Cl)c3o2)cc1N | 21.8
COc1ccc(-n2c(NN=C(C)C)nc3sc4c(c3c2=O)CC(C)(C)OC4)cc1 | -2.5
O=c1/c(=C\c2ccccc2)sc2nc(-c3ccc(Cl)cc3Cl)nn12 | 8
Cn1c(Cn2c(C(F)(F)F)nc3ccccc32)nc2ccccc21 | -5.2
COc1cccc(NC(=O)CCCOc2ccc(Cl)cc2Cl)c1 | -7.4
COC(=O)C1C(=O)CC(C)(O)C(C(=O)OC)C1c1ccc(Br)cc1 (configuration not stated) | 5.5
COc1cccc(NC(=O)COc2ccc(C(C)(C)C)cc2)c1 | -7.2
CCCCCCN1C(=O)/C(=C2\SC(=O)NC2=O)c2ccccc21 | 5.4
O=C(Nc1cccc(Br)c1)C1C2CCC3C(CCC21)C3(Cl)Cl (configuration not stated) | -12.6
C=CCc1cccc2cc(C(=O)Nc3cccc(C(=O)O)c3)c(=O)oc12 | -6
COc1ccc(OC)c(/C=N\NC(=O)c2c(C)nc3cc(C)ccn23)c1 | -0.4
CCCC(=O)C1=C(O)C(C(=O)OC)C(C)(C)CC1=Nc1cccc2ccccc12 (configuration not stated) | 6.1
COc1cc(C2NC(=O)NC(C)=C2C(=O)OCCC#N)cc(OC)c1OC (configuration not stated) | 0.6
Cc1cc2c(cc1C)NC(CC(=O)Nc1ccc([N+](=O)[O-])cc1)C(=O)N2 (configuration not stated) | -8.9
O=C(Nc1c(C(=O)N2CCC(Cc3ccccc3)CC2)cnn1-c1ccccc1)c1ccccc1F | 88.9
O=[N+]([O-])c1ccccc1Nc1nnc(-c2ccccc2)c(-c2ccccc2)n1 | 5.2
COc1ccc(N(CC(=O)Nc2ccc3ccccc3c2)S(C)(=O)=O)cc1 | 0.3
CN(C)c1ccc(/C=c2/sc3nc(-c4ccc(Cl)cc4Cl)nn3c2=O)cc1 | -7.4
COc1cc(C2/C(=C(\O)c3ccccc3)C(=O)C(=O)N2c2cccnc2)ccc1O (configuration not stated) | -0.4
O=C(O)CCCN1C(=O)C(=O)/C(=C(/O)c2ccccc2)C1c1cccc(F)c1 (configuration not stated) | -6.6

Structure (SMILES) | displacement [%]
CCCn1c(C(O)c2cc(OC)c(OC)c(OC)c2)nc2ccccc21 (configuration not stated) | -3.5
COC(=O)Cc1nc2sc3c(c2c(=O)n1Cc1ccccc1)CCC(C(C)(C)C)C3 (configuration not stated) | -7
CCn1c(SCC(=O)N/N=C/c2cccn2C)nnc1-c1ccc(OC)cc1 | 10
CC1=NNC(=O)C1CC(=O)N/N=C(/C)c1cccc([N+](=O)[O-])c1 (configuration not stated) | -4.6
CCOC(=O)C1=CN(c2ccc(OCC)cc2)C=C(C(=O)OCC)C1c1ccc(F)cc1 | 5.3
Cc1ccc(/C=C/C(=O)Nc2ccc(Cl)cc2Cl)o1 | 9.6
Cc1ccc(NC(=O)CSC(N)=O)c(C)c1 | -2.2
O=C1C(Cl)=C(Nc2cccc([N+](=O)[O-])c2)c2c(Cl)c(Cl)c(Cl)c(Cl)c21 | 1.8
CN(C1=NC(=O)/C(=C\c2ccc(Cl)cc2)S1)c1ccc(O)cc1 | 7.4
CCCCOc1ccc(C(=O)N2CCC(Cc3ccccc3)CC2)cc1 | -4.5
O=C(c1cccs1)N(CCN(C(=O)c1cccs1)c1ccccc1)c1ccccc1 | -5.5
O=C1NC(=S)N/C1=C/c1ccc(-c2cccc(Br)c2)o1 | 15.5
COc1ccc(/C=C2/SC(=O)N(CCC(=O)Nc3ccc(S(N)(=O)=O)cc3)C2=O)cc1 | 4
COc1ccc(OC)c(/C=C2\SC(=S)N(c3ccccc3C)C2=O)c1 | 158
CC1=C(C(=O)OCCc2ccccc2)C(c2ccc([N+](=O)[O-])cc2)CC(=O)N1 (configuration not stated) | -8
Cc1c(NCc2ccccc2)[nH]c(=O)[nH]c1=O | -5.4
Cc1cc(-n2ccnc2)n2c(nc3ccccc32)c1C#N | 33.3
O=C(NCC1CCCO1)/C(=C/c1ccc(-c2ccccc2Cl)o1)NC(=O)c1ccccc1 (configuration not stated) | 19.7
COc1ccccc1N1CCN(C(=O)C2C3C=CC(C3)C2C(=O)O)CC1 (configuration not stated) | 1.5
Cc1ccsc1/C=C1\SC(=S)N(c2ccccc2)C1=O | 126
CCOC(=O)c1ccccc1NC(=O)C1CC(=O)N(c2ccc(CC)cc2)C1 (configuration not stated) | 1.9
Cc1ccc(OCC(=O)NNC(=O)Cc2ccc(Cl)cc2)c(C)c1 | 13.1

Structure (SMILES) | displacement [%]
CCOC(=O)c1c(NC(=O)COc2c(C)cc(C)cc2C)sc(C(=O)Nc2ccccc2)c1C | 13.1
Cc1ccc2nsnc2c1NC(=O)c1ccc(Br)o1 | 15.6
CC(C)CNC(=O)COc1ccc(Br)cc1 | -3.8
Cc1cccc(C(=O)N2CCN(Cc3ccccc3)CC2)c1 | -3.4
CN(C)c1ccc(/C=C2\SC(N3CCN(C4=NC(=O)/C(=C\c5ccc(N(C)C)cc5)S4)CC3)=NC2=O)cc1 | -12.9
OC1(C#CCN(C2CCCCC2)C2CCCCC2)CCCCC1 | 13.9
Cc1sc2nc(SCC(=O)N3CCCCC3)[nH]c(=O)c2c1C | -0.3
COc1ccccc1N1CCN(/N=C/c2cc([N+](=O)[O-])ccc2Cl)CC1 | 6.8
COc1cccc(/C=C2\SC(N)=NC2=O)c1OC | -7.3
COc1ccc(N2C(=O)CC(N(CCc3ccc(OC)c(OC)c3)C(C)=O)C2=O)cc1 (configuration not stated) | -5.2
CCOc1cc(C(=O)Nc2cccc(F)c2)cc(OCC)c1OCC | -12.8
Cc1cc(C)c(S(=O)(=O)Nc2cccc([N+](=O)[O-])c2C)c(C)c1 | 13.6
O=C(NCc1ccncc1)C(=O)Nc1nc(C23CC4CC(CC(C4)C2)C3)cs1 | -18.6
COC(=O)CN(c1cccc(C)c1)S(C)(=O)=O | 10.5
COCCN1C(=O)C(=O)/C(=C(/O)c2ccccc2)C1c1ccc(O)c(OC)c1 (configuration not stated) | -10.3
COc1ccccc1CNC(=O)Cc1ccc(Br)cc1 | 17.2
CCCN1C/C(=C\c2ccccc2)C(=O)/C(=C/c2ccccc2)C1 | 18.4
Cc1ccc(N2C(=O)C3C4C=CC(O4)C3C2=O)c(C)c1 (configuration not stated) | -5.8
Cc1cccc(C)c1OCC(=O)Nc1ccc(C(=O)Nc2ccccc2C(=O)O)cc1 | 20
O=C(c1ccc(Br)cc1)N1CCN(Cc2ccccc2)CC1 | -9.6
COc1cc(C(=S)N2CCOCC2)ccc1OC(=O)c1ccc([N+](=O)[O-])cc1 | 10.9
CCOc1ccccc1NC(=O)COc1ccc(Br)c(C)c1 | -9

Structure (SMILES) | displacement [%]
CN1CCN(C(=S)NC(=O)c2ccc(Br)cc2)CC1 | -1.7
COc1ccc(/C=C(\NC(=O)c2ccccc2)C(=O)N/N=C/c2sccc2C)cc1 | 8.7
CCOc1ccc(C(=O)N2CCN(c3ccccc3OC)CC2)cc1OCC | 39.6
O=C(O)CCC(=O)Nc1sc2c(c1C(=O)Nc1cccc3ccccc13)CCCC2 | 7.4
Cc1c(-n2c(O)c(C3=c4cc(Cl)ccc4=NC3=O)sc2=S)c(=O)n(-c2ccccc2)n1C | 5.6
CN(C)/C=C1\N=C(c2cccc(Cl)c2)OC1=O | 1.9
O=c1c2cc3c(=O)n(-c4ccc(S)cc4)c(=O)c3cc2c(=O)n1-c1ccc(S)cc1 | 10.5
CCC(Oc1ccccc1)C(=O)Nc1sc2c(c1C(N)=O)CCC(C(C)(C)C)C2 (configuration not stated) | -0.3
COC(=O)C(CC(C)C)NC(=O)COC(=O)/C=C/c1ccc([N+](=O)[O-])cc1 (configuration not stated) | -12
C/C(=N\NC(=O)COc1ccc(Cl)cc1[N+](=O)[O-])c1cccs1 | 2.4
CCCCOc1cc2oc(=O)cc(C)c2cc1CC | 7.3
COC(=O)c1cc(C(=O)Nc2ccccn2)cc([N+](=O)[O-])c1 | -1.3
O=C(Cc1ccccc1)Nc1ccc(/C=C/C(=O)c2ccccc2)cc1 | -9.3
Cc1ccc(N2C(=O)CC(Sc3nc(C)cc(C)n3)C2=O)cc1 (configuration not stated) | 0.8
CC(=O)c1ccc(Oc2ccc([N+](=O)[O-])cc2)cc1 | 4.8
COc1ccc2c(c1OC)C(=O)OC2CC(=O)c1ccc(N(C)C)cc1 (configuration not stated) | 2.9
Fc1ccc(Nc2nc(-c3ccc(F)cc3)cs2)cc1 | -5.3
CC(=O)CC(=O)Nc1cccc(Br)c1 | -1
C=CCn1c(C)c(/C=C(/C#N)C(=O)Nc2ccc(OC)cc2)c2ccccc21 | -6.6
